# In article PMC6451091:
# The list shows a part of the results. For part of these data: At the low end of the ranking, values are background and their order means little. For part of these data: Measured with an extract: partners may take part in the binding.
# Assays:
# Settings in all cases: 20 mM HEPES pH 7.9, 100 mM NaCl, 1 mM DTT, 0.2 mg/mL BSA, 0.02% Triton X-100, 2% milk, 0.4 mg/mL salmon testes DNA; 1 h; temperature not stated; high values mean tight binding; double strand, one strand shown; sequences stand for … in GCCTAGCAC…GTGCTAGGTCTTGATTCGCTTGACGCTGCTG
# [1] = molecular target: PU.1 (IVT) (UniProt P17947); assay: protein-binding microarray (PBM)
# [2] = molecular target: T1, FLI1 (endogenous, THP-1 nuclear extract) (UniProt Q01543); assay: nuclear extract protein-binding microarray (nextPBM)
# T1 sequence: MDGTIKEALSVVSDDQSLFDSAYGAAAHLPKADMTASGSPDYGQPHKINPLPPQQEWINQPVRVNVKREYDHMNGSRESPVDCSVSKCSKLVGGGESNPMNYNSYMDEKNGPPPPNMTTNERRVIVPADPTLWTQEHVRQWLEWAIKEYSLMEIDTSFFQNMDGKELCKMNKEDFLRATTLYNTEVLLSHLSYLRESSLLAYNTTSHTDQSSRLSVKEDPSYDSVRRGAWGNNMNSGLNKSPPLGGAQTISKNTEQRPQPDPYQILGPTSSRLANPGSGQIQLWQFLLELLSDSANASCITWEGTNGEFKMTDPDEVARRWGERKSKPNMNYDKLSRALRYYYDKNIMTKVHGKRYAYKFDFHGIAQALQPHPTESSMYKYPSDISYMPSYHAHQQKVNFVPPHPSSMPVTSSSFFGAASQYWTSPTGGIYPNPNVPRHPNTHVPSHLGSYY
# [3] = test system: PU.1 (endogenous, THP-1 nuclear extract) + IRF8 (endogenous, THP-1 nuclear extract); assay: as above
Sequence,binding signal [1] [z-score],binding signal [2] [z-score],binding signal [3] [z-score]
AAGAGGCAGAACTGAAACTC,-0.0493,-0.535,10.2
TGAGAGGAGAAGTGAAACGT,1.6,0.122,0.78
ATTATAAGGAAGTGAAACTG,4.72,3.26,60.6
TGGCAGAGGAAGTGAAACTC,3.59,3.55,38.2
AAGAAAGAGAACTGAAAGTA,0.933,0.344,7.5
AAATTAAGGAACTGAAACTC,4.01,2.04,36.3
CGAGAGGAGAAGTGAAACCT,1.39,0.764,26.3
TGAGACGAGAAGTGAAACCT,0.816,0.0159,19.9
GGCTGGCAGAAGTGAAACTC,0.153,-0.305,29.7
TTTTTAGAGAAGTGAAACTA,3.24,2.93,60.3
CTGGCAGGGAAGTGAAACTC,2.03,1.54,29.9
TGAGAGGAGAAGTGAAACTT,1.52,0.688,34.8
AAAAAAAGGAAATGAAAGTG,3.27,2.29,10
TGAGAGGAGAAGTGAAGCCT,1.17,0.22,0.0852
TGGCAGAGGAAGTCAAACTA,2.5,2.21,-0.27
CGAAAAGGGAAATGAAACCA,2.9,2.34,38.1
TGAGAGGAGAAGTGAAAACT,1.24,0.404,0.698
AAATTGAGGAAATGAAACTA,4.46,3.06,58.9
TGGCAGAGGAAGTGAATCTA,3.42,2.7,1.4
ACTCATAGGAACTGAAAGTA,0.775,0.418,8.14
CACAAGGGGAAGTGAAACTC,4.77,3.63,50
